Molecules are shown by their SMILES. Screen size: about 310,000 compounds; about 14,000 (4.5%) showed an effect of 50% or more. The effect is printed as a negative number. The list shows a part of the results.
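Further: peak tail current of the secondary pulse compared with the same well before compound.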

human ether-à-go-go-related gene (hERG) potassium channel, sequence (Q12809 whole entry, looked up): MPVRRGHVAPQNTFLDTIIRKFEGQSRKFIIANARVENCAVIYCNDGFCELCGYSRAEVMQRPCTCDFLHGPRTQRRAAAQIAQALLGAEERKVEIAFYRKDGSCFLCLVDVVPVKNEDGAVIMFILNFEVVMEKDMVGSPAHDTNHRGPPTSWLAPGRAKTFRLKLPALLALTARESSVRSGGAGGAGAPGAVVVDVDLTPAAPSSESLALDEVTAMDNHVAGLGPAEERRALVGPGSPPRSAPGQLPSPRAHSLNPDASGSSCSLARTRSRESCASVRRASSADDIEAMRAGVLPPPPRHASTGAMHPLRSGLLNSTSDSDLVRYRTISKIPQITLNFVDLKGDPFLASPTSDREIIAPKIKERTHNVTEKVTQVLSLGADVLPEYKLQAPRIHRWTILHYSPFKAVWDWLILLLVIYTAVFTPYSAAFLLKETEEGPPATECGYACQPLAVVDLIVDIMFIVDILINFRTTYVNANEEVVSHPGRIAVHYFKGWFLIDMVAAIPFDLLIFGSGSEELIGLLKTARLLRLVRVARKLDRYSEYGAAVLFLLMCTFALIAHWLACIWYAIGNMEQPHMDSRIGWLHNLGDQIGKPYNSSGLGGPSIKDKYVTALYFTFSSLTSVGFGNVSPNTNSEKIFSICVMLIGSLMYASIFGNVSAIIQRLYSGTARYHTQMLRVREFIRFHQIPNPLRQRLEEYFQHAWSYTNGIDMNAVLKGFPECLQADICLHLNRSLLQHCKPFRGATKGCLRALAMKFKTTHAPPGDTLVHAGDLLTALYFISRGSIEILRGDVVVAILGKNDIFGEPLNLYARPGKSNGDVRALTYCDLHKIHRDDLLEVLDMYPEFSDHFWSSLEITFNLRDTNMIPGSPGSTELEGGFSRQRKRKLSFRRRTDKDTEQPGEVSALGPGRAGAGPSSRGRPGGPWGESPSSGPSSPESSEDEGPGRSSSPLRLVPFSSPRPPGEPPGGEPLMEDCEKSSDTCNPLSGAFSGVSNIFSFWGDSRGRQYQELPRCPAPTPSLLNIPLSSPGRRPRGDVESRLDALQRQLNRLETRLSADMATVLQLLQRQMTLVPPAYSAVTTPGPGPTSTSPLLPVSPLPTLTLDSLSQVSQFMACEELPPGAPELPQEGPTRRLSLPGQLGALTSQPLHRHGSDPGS

This experiment has as its target human ether-à-go-go-related gene (hERG) potassium channel (human, UniProt Q12809). Nature of the experiment: primary screen, population patch clamp on CHO cells stably expressing hERG.
As to `O=C(OCc1nnc(-c2ccccc2)o1)c1cc([N+](=O)[O-])ccc1Cl`, the “hERG current change (%, negative = inhibition) at 10uM” value is on record as 9.98%.

Regarding `CCC(C)[C@H](NC(=O)NCc1ccccc1Cl)C(=O)O` (some centres unmarked), the “hERG current change (%, negative = inhibition) at 10uM” value is 6.86%.

`CCOc1ccc(NC(=O)C2CCCN(c3nc(C)cc(C)n3)C2)cc1` (centres unmarked): the “hERG current change (%, negative = inhibition) at 10uM” value is reported as 12.4%.

Consider `CCOc1ccc(CNC(=O)Nc2ccccc2)cc1`, for which the “hERG current change (%, negative = inhibition) at 10uM” value is given as 16.3%.

For `CCCCC(=O)Nc1cc(C(=O)NCCc2ccccc2)ccc1Cl`, the “hERG current change (%, negative = inhibition) at 10uM” value is -17.9%.

Regarding `C[C@H](NC(=O)[C@H](Cc1ccccc1)n1c(=O)[nH]c2ccccc2c1=O)C(=O)N1CCC(C(=O)O)CC1`, the “hERG current change (%, negative = inhibition) at 10uM” value is on record as 4%.

Consider `COc1ccc(CCNC(=O)CCN2C(=O)C3CC=CCC3C2=O)cc1OC` (centres unmarked), for which the “hERG current change (%, negative = inhibition) at 10uM” value worked out at 7.71%.

In the case of `CCOc1ccc(/C=C2\C(=O)c3ccccc3OC2c2ccccc2)cc1` (centres unmarked), the “hERG current change (%, negative = inhibition) at 10uM” value was 13.2%.

Consider `O=C(Cn1nnc(-c2ccccc2NC(=O)c2ccco2)n1)Nc1ccccc1`, for which the “hERG current change (%, negative = inhibition) at 10uM” value amounted to 16.1%.

Turning to `CCCCCn1c(=O)[nH]c2c(c1=O)CCC2`, the “hERG current change (%, negative = inhibition) at 10uM” value was -1.5%.

For `O=C(NCc1nc(-c2ccccc2)no1)c1ccc2c(c1)OCO2`, the “hERG current change (%, negative = inhibition) at 10uM” value is reported as 7.46%.

Consider `O=C(c1ccc(Br)o1)N1CCC(Cc2ccccc2)CC1`, for which the “hERG current change (%, negative = inhibition) at 10uM” value is recorded as -10.5%.

Consider `COCCn1c(=O)sc2ccccc2c1=O`, for which the “hERG current change (%, negative = inhibition) at 10uM” value is recorded as 12%.

On to `COC(=O)[C@H](CC(C)C)NC(=O)N1CCC(C)CC1`, for which the “hERG current change (%, negative = inhibition) at 10uM” value amounted to 16.7%.

Take `C=CCN1C(=O)/C(=N/n2cnnc2)c2ccccc21`: the “hERG current change (%, negative = inhibition) at 10uM” value was 27%.

Regarding `CCc1nnc(NC(=O)CCC(=O)NC2CCCc3ccccc32)s1` (centres unmarked), the “hERG current change (%, negative = inhibition) at 10uM” value is given as -7.77%.

For `O=C(Nc1cccc2ncccc12)c1cccc(F)c1`, the “hERG current change (%, negative = inhibition) at 10uM” value is -11.1%.

Regarding `COc1ccccc1C(=O)NNC(=O)c1ccc(Br)o1`, the “hERG current change (%, negative = inhibition) at 10uM” value is 14%.

With `O=C(c1cc2cc(Cl)ccc2oc1=O)N1CCOCC1`, the “hERG current change (%, negative = inhibition) at 10uM” value is on record as 1.82%.

Consider `Cl.NCCCC[C@H](NC(=O)C1CCNCC1)c1nnc([C@@H](N)Cc2ccc(O)cc2)o1`, for which the “hERG current change (%, negative = inhibition) at 10uM” value worked out at 17.5%.

Regarding `Cc1cccc(S(=O)(=O)NNC(=O)Cc2cccn2C)c1`, the “hERG current change (%, negative = inhibition) at 10uM” value was 11.9%.

Take `N/C(=N\OC(=O)Cc1ccccc1)c1cccc(Br)c1`: the “hERG current change (%, negative = inhibition) at 10uM” value came to 32.7%.

As for `Cc1nn(CC(=O)N2CCN(C34CC5CC(CC(C5)C3)C4)CC2)c(C)c1[N+](=O)[O-]`, the “hERG current change (%, negative = inhibition) at 10uM” value is on record as -1.7%.

`CCOC(=O)/C=C1\SC(C)C(=O)N1CC(=O)N(CCC#N)c1ccccc1` (centres unmarked): the “hERG current change (%, negative = inhibition) at 10uM” value is -32.3%.

On to `CCOC(=O)c1c(NC(=O)c2ccc(S(=O)(=O)N3CCOCC3)cc2)sc2c1CCN(C(C)C)C2`, for which the “hERG current change (%, negative = inhibition) at 10uM” value is -49.1%.

Consider `C[N+]1(C)CCc2cc3c(cc2[C@H]1[C@@H]1OC(=O)c2c1ccc1c2OCO1)OCO3.[I-]`, for which the “hERG current change (%, negative = inhibition) at 10uM” value is listed as 18.8%.

For the compound `O=C(COc1ccc(Cl)cc1Cl)Nc1ccc(C(=O)Nc2ccccc2C(=O)O)cc1`, the “hERG current change (%, negative = inhibition) at 10uM” value was found to be 2.06%.

Take `CSC(=NC#N)N1CCN(c2ccccc2)CC1`: the “hERG current change (%, negative = inhibition) at 10uM” value was -2.95%.

For the compound `Cc1ccc2nc(/C(C#N)=N/O)[nH]c2c1`, the “hERG current change (%, negative = inhibition) at 10uM” value is 18.2%.

Take `Cc1ccc(C)c(NC(=S)NNC(=O)c2csc3c2CCC(C)C3)c1` (centres unmarked): the “hERG current change (%, negative = inhibition) at 10uM” value is recorded as 3.17%.

In the case of `COc1ccc(Cl)cc1C(=O)NN=C1CCCC1`, the “hERG current change (%, negative = inhibition) at 10uM” value is recorded as -5.93%.

With `O=C(c1ccc2c(c1)OCCO2)N1CCN(c2ccc([N+](=O)[O-])cc2)CC1`, the “hERG current change (%, negative = inhibition) at 10uM” value is -47.1%.

Turning to `C#CCOCCOCCOCCNc1nc(N2CCN(C(=O)[C@H](CCCC[NH3+])n3cc(CC(C)O)nn3)CC2)nc(N2CCN(C(=O)[C@H](CCCC[NH3+])n3cc(CC(C)O)nn3)CC2)n1.[Cl-]` (some centres unmarked), the “hERG current change (%, negative = inhibition) at 10uM” value is 2.92%.

In the case of `CC(C)(C)[C@H]1CCC(=O)N([C@H](CSc2ccc(Br)cc2)Cc2ccccc2)CC1`, the “hERG current change (%, negative = inhibition) at 10uM” value was 4.84%.

In the case of `O=C(c1ccc(Cl)c(Cl)c1)N1CCOCC1`, the “hERG current change (%, negative = inhibition) at 10uM” value is reported as -1.75%.

With `CN(CC(=O)Nc1ccccc1Cl)C(=O)COC(=O)c1ccc(Cl)cc1[N+](=O)[O-]`, the “hERG current change (%, negative = inhibition) at 10uM” value is recorded as -4.29%.

Consider `Cc1sc(NC(=O)c2ccco2)c(C(c2cccnc2)N2CCN(CCO)CC2)c1C` (centres unmarked), for which the “hERG current change (%, negative = inhibition) at 10uM” value is reported as -20.9%.

For the compound `CC1(C)CC(=O)C2=C(C1)C(c1cn(-c3ccccc3)nc1-c1ccccc1)C(C#N)=C(N)O2` (centres unmarked), the “hERG current change (%, negative = inhibition) at 10uM” value was -13%.

With `Cc1nc(N2CCN(Cc3ccccc3)CC2)[nH]c(=O)c1C`, the “hERG current change (%, negative = inhibition) at 10uM” value was -4.93%.

As to `O=C1CCCCCN1Cc1ccccc1`, the “hERG current change (%, negative = inhibition) at 10uM” value is -0.0219%.

For `COc1ccc(NC(=O)/C(Cl)=C(/Cl)S(=O)Cc2ccccc2)cn1` (centres unmarked), the “hERG current change (%, negative = inhibition) at 10uM” value was -0.451%.

Regarding `O=C(Nc1ccccc1F)NC1CC1`, the “hERG current change (%, negative = inhibition) at 10uM” value stood at 15.4%.

Regarding `OCC1(Cc2cccc(Cl)c2)CCCN(Cc2sc(N3CCCC3)nc2Cl)C1` (centres unmarked), the “hERG current change (%, negative = inhibition) at 10uM” value is on record as -1.04%.

With `CCOC(=O)c1sc(NC(=O)C2CC(=O)N(c3ccc(OCC)cc3)C2)nc1C` (centres unmarked), the “hERG current change (%, negative = inhibition) at 10uM” value is -14.5%.

These data come from article PMC4336329 (PLoS ONE, 2015).
